Some of the results follow. Sequences were assembled here from the parent chain. Values near 0.05 are background.
B1: TEV protease; numbered along this chain (parent)
chain: MGESLFKGPRDYNPISSSICHLTNESDGHTTSLYGIGFGPFIITNKHLFRRNNGTLVVQSLHGVFKVKDTTTLQQHLVDGRDMIIIRMPKDFPPFPQKLKFREPQREERICLVTTNFQTKSMSSMVSDTSCTFPSGDGIFWKHWIQTKDGQCGSPLVSTRDGFIVGIHSASNFTNTNNYFTSVPKNFMELLTNQEAQQWVSGWRLNADSVLWGGHKVFMVKPEEPFQPVKEATQL

Variants of: B1
Assay: raw area under fraction-flipped curve 0-4 h after induction (AUC4h, not background-subtracted), DNA-recorder readout of cleavage of the substrate (dimensionless); higher = more cleavage of the substrate by the protease variant
Conditions: temperature: 34 °C; time window: 0-4 h after rhamnose induction
Description: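 In vivo DNA recorder in E. coli TOP10(DE3) ΔrhaA at 34 °C. Each TEVp single-site mutant (parent TEVp 0) is paired with a single-site variant of the 7-mer TEVs (canonical ENLYFQ|S). The substrate sits between flexible linkers in a Bxb1-sfGFP-TEVs-SsrA fusion, so cleavage stabilises Bxb1 and speeds flipping of a recombination array, read by NGS. The value is the raw area under the fraction-flipped curve over 0-4 h after rhamnose induction (AUC4h), with ≥20 reads per time point. It is not background-subtracted; inactive controls average about 0.047.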
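Also: Bxb1 expression induced with 0.2% (w/v) L-rhamnose at OD600 near 0.5, cultures sampled hourly, flipped fraction per protease–substrate barcode pair counted by paired-end Illumina sequencing.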

Variant | area with substrate ENLYFQA | area with substrate ENLYFQC | area with substrate ENLYFQD | area with substrate ENLYFQE | area with substrate ENLYFQF | area with substrate ENLYFQG | area with substrate ENLYFQH | area with substrate ENLYFQI | area with substrate ENLYFQK | area with substrate ENLYFQL | area with substrate ENLYFQM | area with substrate ENLYFQN | area with substrate ENLYFQP | area with substrate ENLYFQQ | area with substrate ENLYFQR | area with substrate ENLYFQS | area with substrate ENLYFQT | area with substrate ENLYFQV | area with substrate ENLYFQW | area with substrate ENLYFQY
MGESLFKGPRDYNPISSSICHLTNESDGHTTSLYGIGFGPFIITNKHLFRRNNGTLVVQSLHGVFKVKDTTTLQQHLVDGRDMIIIRMPKDFPPFPQKLKFREPQREERICLVVTNFQTKSMSSMVSDTSCTFPSGDGIFWKHWIQTKDGQCGSPLVSTRDGFIVGIHSASNFTNTNNYFTSVPKNFMELLTNQEAQQWVSGWRLNADSVLWGGHKVFMVKPEEPFQPVKEATQL [T114V] | 0.13 | 0.11 | 0.0778 | 0.0658 | 0.0743 | 0.078 | 0.0655 | 0.0373 | 0.0614 | 0.0682 | 0.0745 | 0.0614 | 0.0481 | 0.0745 | 0.0547 | 0.102 | 0.0653 | 0.0579 | 0.062 | 0.0671
MGESLFKGPRDYNPISSSICHLTNESDGHTTSLYGIGFGPFIITNKHLFRRNNGTLVVQSLHGVFKVKDTTTLQQHLVDGRDMIIIRMPKDFPPFPQKLKFREPQREERICLVQTNFQTKSMSSMVSDTSCTFPSGDGIFWKHWIQTKDGQCGSPLVSTRDGFIVGIHSASNFTNTNNYFTSVPKNFMELLTNQEAQQWVSGWRLNADSVLWGGHKVFMVKPEEPFQPVKEATQL [T114Q] | 0.143 | 0.105 | – | – | – | 0.113 | – | 0.0577 | 0.064 | 0.0727 | 0.0994 | 0.0758 | – | 0.0745 | 0.0519 | 0.11 | 0.075 | 0.0584 | – | 0.0709
MGESLFKGPRDYNPISSSICHLTNESDGHTTSLYGIGFGPFIITNKHLFRRNNGTLVVQSLHGVFKVKDTTTLQQHLVDGRDMIIIRMPKDFPPFPQKLKFREPQREERICLVTTNFQTKSMSSMVSDTQCTFPSGDGIFWKHWIQTKDGQCGSPLVSTRDGFIVGIHSASNFTNTNNYFTSVPKNFMELLTNQEAQQWVSGWRLNADSVLWGGHKVFMVKPEEPFQPVKEATQL [S130Q] | 0.0968 | – | 0.0844 | 0.05 | – | 0.103 | 0.0758 | – | – | – | 0.0829 | – | – | – | – | 0.107 | 0.0735 | – | – | 0.0853
MGESLFKGPRDYNPISSSICHLTNESDGHTTSLYGIGFGPFIITNKHLFRRNNGTLVVQSLHGVFKVKDTTTLQQHLVDGRDMIIIRMPKDFPPFPQKLKFREPQREERICLVTTNFQTKSMSSMVADTSCTFPSGDGIFWKHWIQTKDGQCGSPLVSTRDGFIVGIHSASNFTNTNNYFTSVPKNFMELLTNQEAQQWVSGWRLNADSVLWGGHKVFMVKPEEPFQPVKEATQL [S127A] | 0.129 | 0.132 | 0.0687 | 0.0526 | – | 0.0927 | 0.0789 | 0.0602 | 0.0698 | 0.0564 | 0.0881 | 0.101 | 0.0607 | – | 0.0737 | 0.116 | 0.0699 | 0.0613 | 0.0645 | 0.077

From the supplement of paper PMC12217912
